Measured values published in the supplement of paper PMC3334620.
Over roughly 33,000 sequences, “E-score (-0.5 to 0.5)” has its median near -0.035; the highest 2% begin near 0.35. The list shows a part of the results.

These sequences were tested against T1, Pdr3 (UniProt P33200) (assay: PBM E-score (8-mer binding enrichment) (E-score (-0.5 to 0.5)); higher = stronger / more preferred TF binding; most listed sequences are background and not binding sites). Details: protein concentration: 200 nM; construct: GST-full length.
T1 sequence: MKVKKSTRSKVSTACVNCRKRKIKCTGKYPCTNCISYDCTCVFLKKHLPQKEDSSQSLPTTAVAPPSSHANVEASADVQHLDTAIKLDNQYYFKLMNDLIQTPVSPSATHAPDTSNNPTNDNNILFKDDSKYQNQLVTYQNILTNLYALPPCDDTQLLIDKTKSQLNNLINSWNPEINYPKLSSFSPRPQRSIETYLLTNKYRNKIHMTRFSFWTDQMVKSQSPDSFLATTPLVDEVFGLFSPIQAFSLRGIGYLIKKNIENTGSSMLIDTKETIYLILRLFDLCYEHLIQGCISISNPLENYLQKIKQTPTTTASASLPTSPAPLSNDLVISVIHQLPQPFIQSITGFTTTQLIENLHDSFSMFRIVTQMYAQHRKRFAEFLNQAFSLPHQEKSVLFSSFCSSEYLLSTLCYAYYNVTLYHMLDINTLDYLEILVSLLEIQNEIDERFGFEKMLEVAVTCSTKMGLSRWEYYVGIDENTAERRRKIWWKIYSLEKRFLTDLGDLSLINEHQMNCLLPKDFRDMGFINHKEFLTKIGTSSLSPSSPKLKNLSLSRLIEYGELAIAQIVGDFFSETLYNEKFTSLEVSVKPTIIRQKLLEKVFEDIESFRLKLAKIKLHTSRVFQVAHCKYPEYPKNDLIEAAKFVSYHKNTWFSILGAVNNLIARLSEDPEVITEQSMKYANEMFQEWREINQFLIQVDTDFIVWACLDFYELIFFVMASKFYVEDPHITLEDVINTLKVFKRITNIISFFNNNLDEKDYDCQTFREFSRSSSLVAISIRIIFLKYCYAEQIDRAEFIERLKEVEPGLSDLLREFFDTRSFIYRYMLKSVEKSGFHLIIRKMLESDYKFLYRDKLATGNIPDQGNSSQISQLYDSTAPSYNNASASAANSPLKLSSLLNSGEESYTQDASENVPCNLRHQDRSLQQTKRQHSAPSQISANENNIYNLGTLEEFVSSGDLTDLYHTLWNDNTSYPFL
Experimental: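 Universal 'all 10-mer' protein binding microarrays (Agilent AMADID 015681) probed with GST-tagged S. cerevisiae TFs (full-length or DBD) made by in vitro transcription/translation (PURExpress), about 100-200 nM. Bound TF was detected with fluorescent anti-GST. Each ungapped 8-mer (which stands for itself and its reverse complement) is scored by the PBM enrichment score (E-score), a modified Wilcoxon-Mann-Whitney statistic from -0.5 to +0.5, computed with the Universal PBM Analysis Suite. Scale: above 0.35 generally sequence-specific binding.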
With ACCCGACG the “PBM E-score” value was 0.264. In the case of CATAGGAG, the “PBM E-score” value is reported as -0.201. With ACTAACCA the “PBM E-score” value was -0.0352. With GCGCCTAA the “PBM E-score” value was 0.069. AGAGATTA was tested, and the “PBM E-score” value was -0.0924. For AGGGGGAG, the “PBM E-score” value was -0.225. For AGCCGTTG, the “PBM E-score” value was 0.00388. ACTGAAGA was tested, and the “PBM E-score” value was 0.0502. In the case of ATCTGAAT, the “PBM E-score” value is reported as -0.0183. CCCGGCGC was tested, and the “PBM E-score” value was 0.26. CCGTTGCC was tested, and the “PBM E-score” value was 0.215. For CACCGAAA, the “PBM E-score” value was 0.116. For CTCACAGC, the “PBM E-score” value was -0.12. For ACCAATTG, the “PBM E-score” value was -0.136. With ATCTGCGG the “PBM E-score” value was 0.19. In the case of AAATCCTA, the “PBM E-score” value is reported as -0.0767. For AGAACCGG, the “PBM E-score” value was 0.316. In the case of ACGCCTCC, the “PBM E-score” value is reported as 0.0133. With ATCCCCAG the “PBM E-score” value was -0.152. In the case of CTTTCCAA, the “PBM E-score” value is reported as -0.0271. AAGCACAT was tested, and the “PBM E-score” value was 0.0452. For AACTCGGA, the “PBM E-score” value was 0.296. In the case of AGACGTCA, the “PBM E-score” value is reported as -0.117. In the case of AAGTTTGA, the “PBM E-score” value is reported as 0.0868. With CACGAGCC the “PBM E-score” value was -0.155. With ACGTCCGA the “PBM E-score” value was 0.173. With AGTCTTAC the “PBM E-score” value was -0.212. In the case of AGCTTGCA, the “PBM E-score” value is reported as -0.0946. In the case of AAGATGTC, the “PBM E-score” value is reported as 0.0418. For AATCGTGT, the “PBM E-score” value was 0.0849. CGGCAGCC was tested, and the “PBM E-score” value was 0.358. With AATCTTAC the “PBM E-score” value was 0.106. In the case of AGTCCATA, the “PBM E-score” value is reported as -0.189. With GATCCGAC the “PBM E-score” value was 0.193. With ACTCGGCT the “PBM E-score” value was 0.0466. CATGGTGG was tested, and the “PBM E-score” value was -0.00931. For CGTATTCC, the “PBM E-score” value was 0.258. With GCAGACCC the “PBM E-score” value was -0.0715. For AATCCCGG, the “PBM E-score” value was 0.407. In the case of GGCAGCAA, the “PBM E-score” value is reported as 0.0329. For ACACCCTC, the “PBM E-score” value was -0.0138. In the case of ATGCGACA, the “PBM E-score” value is reported as -0.0464. In the case of GGCCGGCC, the “PBM E-score” value is reported as 0.326. GCGAACGA was tested, and the “PBM E-score” value was -0.0923. For CTTCTGCA, the “PBM E-score” value was -0.0542. For CTCCAGGC, the “PBM E-score” value was -0.271. For CTTGCGGC, the “PBM E-score” value was 0.172. For AACGCACG, the “PBM E-score” value was 0.115. GAATCTGA was tested, and the “PBM E-score” value was 0.0387. With TCACACAA the “PBM E-score” value was -0.0623. In the case of ACAATTTA, the “PBM E-score” value is reported as -0.0999. For ACTGGTTG, the “PBM E-score” value was 0.0224. AGTCAGAC was tested, and the “PBM E-score” value was -0.108. With GAAAATGC the “PBM E-score” value was 0.0641. With CAGATACC the “PBM E-score” value was -0.112. For AGCCGATC, the “PBM E-score” value was 0.14. For CCTATCAG, the “PBM E-score” value was -0.216. In the case of ATCAACGG, the “PBM E-score” value is reported as 0.247. For GCAATGCA, the “PBM E-score” value was -0.133. In the case of AGAGCCTG, the “PBM E-score” value is reported as -0.347. In the case of ACTTTGGG, the “PBM E-score” value is reported as -0.115. In the case of AAGGTACG, the “PBM E-score” value is reported as -0.0286. CAGACTGC was tested, and the “PBM E-score” value was -0.25. GTGAATGA was tested, and the “PBM E-score” value was -0.0292. For TCTAAGAA, the “PBM E-score” value was 0.0221. For ACAATTAC, the “PBM E-score” value was -0.127. For AGACCGCG, the “PBM E-score” value was 0.161. For ACTCGTAG, the “PBM E-score” value was -0.162. With GCCAGCGC the “PBM E-score” value was -0.0589. For AACCCCTA, the “PBM E-score” value was -0.108. For AGAGATAG, the “PBM E-score” value was -0.0678. GCCGGGCA was tested, and the “PBM E-score” value was 0.282. In the case of ATACTTGA, the “PBM E-score” value is reported as -0.331. With ACCGCTAT the “PBM E-score” value was 0.0128. With TAAGGAGA the “PBM E-score” value was -0.256. In the case of ATCCACCG, the “PBM E-score” value is reported as 0.13. In the case of CCCTTGAA, the “PBM E-score” value is reported as -0.0712. ATTTGTGC was tested, and the “PBM E-score” value was -0.151. With CCACCTGG the “PBM E-score” value was -0.177. ATGTTTCG was tested, and the “PBM E-score” value was 0.0256. With CGTGGTAA the “PBM E-score” value was -0.0844. CTCTAACA was tested, and the “PBM E-score” value was -0.246. In the case of AAGTGGCG, the “PBM E-score” value is reported as 0.0522. In the case of CATTCTGG, the “PBM E-score” value is reported as -0.137. In the case of CTGAAGGA, the “PBM E-score” value is reported as -0.178. With AGTAGTCC the “PBM E-score” value was 0.122. With CTCTAGTA the “PBM E-score” value was 0.0263. AATTCTTC was tested, and the “PBM E-score” value was -0.0848. With ACCACGAT the “PBM E-score” value was -0.029. In the case of GCTCGTGA, the “PBM E-score” value is reported as -0.0277. With CCTCTTTC the “PBM E-score” value was -0.00122. In the case of GTCCACCA, the “PBM E-score” value is reported as -0.0733. With CAGTTTGG the “PBM E-score” value was -0.0379. With GCGTGAGC the “PBM E-score” value was 0.0731. In the case of CATTACAC, the “PBM E-score” value is reported as -0.0676. In the case of GGTTCTAA, the “PBM E-score” value is reported as 0.0295. In the case of CGATATGC, the “PBM E-score” value is reported as 0.0817. TGTTTTAA was tested, and the “PBM E-score” value was -0.0228. In the case of CGAATGGA, the “PBM E-score” value is reported as -0.0273. For CATACACA, the “PBM E-score” value was -0.275. With AATTAAAA the “PBM E-score” value was -0.0728. In the case of ATTCCCGA, the “PBM E-score” value is reported as 0.212. ACGTTTAC was tested, and the “PBM E-score” value was -0.169. With CATCCGGA the “PBM E-score” value was 0.426. ACCCACCA was tested, and the “PBM E-score” value was -0.0903. For ATGTCGAA, the “PBM E-score” value was 0.0136. In the case of GGGGCGGA, the “PBM E-score” value is reported as 0.359. For TACACTCA, the “PBM E-score” value was -0.091. AATGAATG was tested, and the “PBM E-score” value was 0.113.
